Assay results published in the supplement of paper PMC3334620.
The full ranking holds about 33,000 sequences; the median of “E-score (-0.5 to 0.5)” is about -0.016, and the highest 2% start at about 0.31. Some of the results follow.

Biological target: Cst6 (UniProt P40535)
Experiment: PBM E-score (8-mer binding enrichment) (E-score (-0.5 to 0.5)); higher = stronger / more preferred TF binding; most listed sequences are background and not binding sites
Settings: protein concentration: 200 nM; construct: GST-DNA-binding domain
Outline: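 E-scores (a modified Wilcoxon-Mann-Whitney statistic) were assigned by the Universal PBM Analysis Suite to every ungapped eight-base word pooled with its reverse complement. The input came from universal all-10-mer Agilent arrays made double-stranded by primer extension and probed with GST-tagged yeast transcription factors at about 100-200 nM. Fluorescent anti-GST detected bound protein, and masliner normalised the scans.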

Sequence | PBM E-score
CCCCCGAA | -0.245
CATCCTAC | -0.0877
AGCCACTG | -0.0843
GAATCTAA | 0.097
AGCTGGCC | 0.0131
GATAGGGC | -0.242
GCGATTTA | 0.0726
AAAGGAAT | 0.0293
GAGCCTCA | 0.00319
GGTTGCAC | -0.136
GCCGGAAA | -0.138
TAGTCACA | 0.0725
CTAAGGAG | -0.206
CCCGTATC | -0.233
AAAATTGG | 0.106
GGGCTCGA | -0.112
CCGTTGTC | 0.0455
ACGGCTAT | 0.115
CACGGCGC | 0.357
CAGTAGAC | 0.0414
GAATTAAC | 0.128
GGTGGTTA | -0.00265
CTGGTTGC | -0.0494
AACACAGA | -0.00148
GGATAATA | 0.148

Sequence | PBM E-score
AAAGATTC | 0.236
AAGGTGAC | 0.243
GTCGCAAC | -0.0642
CTAACATA | 0.176
GGCTTCGA | -0.00844
CACAAAGA | 0.0847
ACGTAGAT | 0.251
AGGACCAC | -0.347
GATTCCAC | 0.097
GTCCTTTA | -0.0901
GGCGGGAC | -0.222
ACCTCGTC | -0.0551
CGCGCCAG | 0.0582
GTGCCTCA | 0.0677
GGTGGAAA | -0.0896
GGTAAAAA | 0.227
GCTAAAGA | 0.127
TCTGATAA | 0.0469
TATCCAAA | 0.121
AAGGACAC | -0.0911
ACTGTCGC | -0.277
CACGCGGC | 0.279
CAATACTC | 0.0606
ATGAGCTC | 0.12
CGATGGGC | -0.128

Sequence | PBM E-score
CTCTGTTC | -0.179
CTAGAAAA | 0.0743
GCTCCAGC | -0.0194
AGTCGTAA | 0.0707
GCCACGGC | 0.198
GGGAGCAA | -0.289
GAAGCTCC | -0.23
CCCAAGCA | -0.00848
CATACAGC | -0.183
GCGCGTGA | 0.186
AAAACCAC | 0.0384
GGGTACAC | -0.146
CTCCATAC | -0.0429
ACACTAGG | -0.103
GACGCTTA | 0.0361
GGCACGGA | 0.0941
CCTCTCTA | -0.258
CTCTTGTA | -0.0608
CCAAGTAA | 0.175
GTGCCCAC | -0.116
CTTTTAGA | 0.0486
GACGAGTA | 0.0509
AGAGTTAT | -0.0852
GACACAGC | 0.0701
CCCCCGCC | -0.401

Sequence | PBM E-score
CTTACGGC | -0.0643
AAACCGGA | -0.0394
AACCTTTA | -0.0947
CCGTCCTC | -0.226
GCTTTGCA | -0.261
CTGGCGCA | -0.212
AACACCCC | -0.2
CACCCGCC | 0.136
CGGGAAGC | -0.185
GGAACTAC | -0.0942
GAAAAACA | 0.0134
CCCTGGCA | -0.22
TAGGAGGA | -0.0406
ACCTCAAA | 0.128
ACTTACGA | 0.224
AGGGTGGA | -0.262
ATAGTATG | 0.111
ATAACCTC | 0.0519
CAGTGTAG | 0.0008
AAGACACA | 0.0934
GTCCCGAA | -0.352
AAATATCT | 0.0489
CAGCATGA | 0.0354
ACCGGGTA | -0.051
GCTCACAA | 0.217

Sequence | PBM E-score
ATATATAT | 0.294
ATATCAAC | 0.129
CGTCCAAC | -0.0323
CTAGGCTC | -0.149
ACCGCGTG | -0.182
CGATGTCA | 0.319
AACGCTAG | -0.224
CCATCATC | 0.146
ACGTCTCT | -0.028
AGAACGAG | 0.117
TCCAGGCA | -0.0535
CCTATTCG | -0.218
CTCTGATA | 0.0422
CGCGCAGC | -0.0832
ACTCGGTA | -0.0364
AAGATCAG | -0.125
TAGCCCTA | -0.181
CTGTGTCC | -0.113
CTTTTCTC | 0.0528
ACTCTAGC | -0.199
GAGCACGC | -0.191
AAAGTCGA | -0.151
AACACGCT | -0.0524
AATCATAC | 0.239
ACCGTCTA | -0.309

Sequence | PBM E-score
ATCCCCAA | 0.0131
CGACTATC | -0.114
ATAGAAAT | 0.206
AGTGATTA | 0.203
AATCTGAC | 0.15
CCCTCCGA | -0.369
GGCTCTCA | -0.117
CATACTTA | 0.108
CAAGTCTA | -0.155
TAGGGCGA | -0.0553
TAATGAGA | 0.0949
CCTGGTCC | -0.306
ATGCAGCA | -0.112
CAACGGTG | -0.263
CACCGCGA | -0.0105
ACGTCAAT | 0.455
AAAATTTC | 0.134
ACGGGGTG | -0.0584
TGAATTAA | 0.27
AGATTGGG | 0.0554
CCTTCACC | -0.212
AGGAATTC | -0.101
AAAACGCT | 0.0338
CAACTATA | 0.025
ACCGTCCA | -0.185

Sequence | PBM E-score
CGACGGCC | -0.145
ACGAGCCG | 0.127
ACAAGCTA | -0.0918
GATCGCCC | -0.239
ACTAGGTC | -0.0271
CGATTTAC | 0.114
AATGTTTA | 0.103
ATTACCCA | 0.0952
TCTTATCA | 0.293
ATTCCATA | 0.0886
AAACTCAG | 0.0818
CGCCCGAA | -0.287
CCACCATC | -0.28
CCTCAGTC | -0.122
GATGAAAA | 0.164
CTTCAACA | 0.105
AAATGCTC | -0.0632
CTTCTTAA | 0.1
AGGGCGCG | 0.00972
AGCAATTC | 0.0696
TGGGCTAA | -0.157
AACGGTCG | 0.009
CCTCGGCG | 0.124
AGGAGCCC | -0.25
AAGTCGAC | -0.031

Sequence | PBM E-score
AAAACACA | 0.0725
AAAAAAAG | 0.211
GAAAGTTA | 0.141
GCCCTAGA | -0.203
CATGAGCG | 0.0642
GACCTATC | -0.134
AATAAACT | 0.0876
AAGCACGC | 0.0996
ATGAGTAG | 0.131
CGAGACAG | 0.0363
ACGTTGTC | -0.0147
ACCAGGCT | -0.224
GGTTGGAA | -0.101
TGCCCACA | -0.195
GCCCCGTA | -0.094
GGCCACTA | -0.0437
CAACCCAA | 0.0111
TCCTACAA | 0.0486
AGTCGCAG | -0.192
CGTACAAC | 0.0177
ATGCACGC | 0.0803
CAAGAAAC | 0.121
CGGTGTTA | -0.168
ATGCGGGC | -0.0464
ACATCAGT | 0.218

Sequence | PBM E-score
GTCCTGCA | -0.226
ACATTTCG | -0.0133
ATGGTCCG | 0.00983
CCCCCCGA | -0.427
AAGAGCGA | -0.17
GAAACTCA | 0.15
GCAATCCA | 0.0451
GTCATGAC | 0.374
ACCAAATG | -0.0331
CGAAACAA | 0.16
ACCCTAGT | -0.24
GGGGTGCA | -0.161
CGACTGCG | -0.127
ACCATATA | 0.272
CGGATAAG | -0.118
CGTGGCCC | -0.282
AATCTCGA | 0.045
TTCAGCAA | 0.195
ACAACCGC | 0.159
